# Where a chain is given by its changes, count along the chain named. No constants are given. Whether binding was seen depends on the method and setting. Binding seen in cells or lysates may run through a third protein. Some binding calls cover weakened binding; strength is not graded here. Where a sequence is shown, tags or fusion partners need not be part of it.
# By UniProt entry, the sequences of proteins in these tests, tags left out.
# UniProt Q9QYP6: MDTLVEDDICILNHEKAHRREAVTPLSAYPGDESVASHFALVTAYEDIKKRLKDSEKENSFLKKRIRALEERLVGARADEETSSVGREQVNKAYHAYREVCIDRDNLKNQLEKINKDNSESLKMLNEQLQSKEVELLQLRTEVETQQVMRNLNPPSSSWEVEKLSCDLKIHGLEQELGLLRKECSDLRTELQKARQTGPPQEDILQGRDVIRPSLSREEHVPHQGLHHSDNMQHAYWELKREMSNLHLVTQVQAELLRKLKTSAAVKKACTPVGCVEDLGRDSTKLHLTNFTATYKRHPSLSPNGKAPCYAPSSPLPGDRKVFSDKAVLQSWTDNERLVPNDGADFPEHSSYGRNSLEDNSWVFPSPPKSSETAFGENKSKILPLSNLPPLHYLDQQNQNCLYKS
# UniProt A2A9T0: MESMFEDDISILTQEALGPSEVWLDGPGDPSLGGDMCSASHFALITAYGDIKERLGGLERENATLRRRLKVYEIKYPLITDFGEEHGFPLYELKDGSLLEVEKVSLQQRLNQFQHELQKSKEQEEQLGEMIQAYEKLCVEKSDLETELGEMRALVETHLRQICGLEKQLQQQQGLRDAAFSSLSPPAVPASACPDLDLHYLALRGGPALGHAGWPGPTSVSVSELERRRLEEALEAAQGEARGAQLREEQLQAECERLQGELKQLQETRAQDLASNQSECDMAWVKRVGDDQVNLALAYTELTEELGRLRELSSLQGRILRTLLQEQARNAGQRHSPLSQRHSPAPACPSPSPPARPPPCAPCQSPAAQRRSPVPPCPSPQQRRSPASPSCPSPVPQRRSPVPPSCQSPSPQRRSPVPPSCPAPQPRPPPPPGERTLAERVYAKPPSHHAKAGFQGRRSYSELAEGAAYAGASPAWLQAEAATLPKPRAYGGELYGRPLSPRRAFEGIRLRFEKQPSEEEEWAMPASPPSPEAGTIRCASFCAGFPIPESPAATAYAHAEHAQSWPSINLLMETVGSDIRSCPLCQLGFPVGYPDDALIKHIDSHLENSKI
# T1: Myc-tagged TBK1 K694E (murine) (UniProt Q9WUN2)
# T1 sequence: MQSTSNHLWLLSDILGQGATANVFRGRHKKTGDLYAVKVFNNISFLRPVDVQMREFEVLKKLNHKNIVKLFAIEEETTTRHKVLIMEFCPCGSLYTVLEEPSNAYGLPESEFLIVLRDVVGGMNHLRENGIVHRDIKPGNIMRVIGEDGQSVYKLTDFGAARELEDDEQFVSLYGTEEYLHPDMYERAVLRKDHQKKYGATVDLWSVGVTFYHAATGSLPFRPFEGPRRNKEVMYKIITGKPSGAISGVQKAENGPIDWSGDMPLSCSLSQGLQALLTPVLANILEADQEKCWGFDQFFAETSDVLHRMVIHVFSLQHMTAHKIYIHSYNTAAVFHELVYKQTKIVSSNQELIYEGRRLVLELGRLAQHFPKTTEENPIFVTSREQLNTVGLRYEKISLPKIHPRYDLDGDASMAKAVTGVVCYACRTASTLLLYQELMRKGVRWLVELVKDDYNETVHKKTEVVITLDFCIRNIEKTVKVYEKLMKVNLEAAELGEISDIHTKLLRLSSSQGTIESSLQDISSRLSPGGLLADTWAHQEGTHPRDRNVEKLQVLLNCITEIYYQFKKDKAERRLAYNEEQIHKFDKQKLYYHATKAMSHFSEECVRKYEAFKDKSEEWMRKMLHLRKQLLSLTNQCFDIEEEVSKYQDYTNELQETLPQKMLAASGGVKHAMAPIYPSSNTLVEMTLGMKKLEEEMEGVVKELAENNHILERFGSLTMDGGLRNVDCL
# T2: Myc-tagged TBK1 L693A (murine) (UniProt Q9WUN2)
# T2 sequence: T1 sequence with L693A, E694K
# T3: Myc-tagged TBK1 wt (murine) (UniProt Q9WUN2)
# T3 sequence: T1 sequence with E694K
# B1: V5-tagged TANK (protein, UniProt P70347 1-448)
# chain: MSLKRHSLRRNACHLETRAGIPTILYSDATGQRGMDKNIGEQLNRAYEAFRQACMDRDSAVRELQQKQTENYEQRIREQQEQLSFQQNLIDRLKSQLLLVDSSRDNSYGYVPLLEDSDRRKNNLTLDEPHDKVKLGTLRDKQSKVRRQEVSSGKESAKGLNIPLHHERDNIEKTFWDLKEEFHRICLLAKAQKDHLSKLNIPDIATDTQCSVPIQCTDKTEKQEALFKPQAKDDINRGMSCVTAVTPRGLGRDEEDTSFESLSKFNVKFPPMDNDSIFLHSTPEAPSILAPATPETVCQDRFNMEVRDNPGNFVKTEETLFEIQGIDPITSAIQNLKTTDKTNPSNLRATCLPAGDHNVFYVNTFPLQDPPDAPFPSLDSPGKAVRGPQQPFWKPFLNQDTDLVVPSDSDSELLKPLVCEFCQELFPPSITSRGDFLRHLNTHFNGET
# Tests used:
# Assay in all cases: co-IP; Myc-tagged TBK1 constructs coexpressed with V5-tagged adaptors in HEK293 cells; Frackelton buffer (10 mM Tris/HCl pH 7.5, 50 mM NaCl, 1% Triton X-100); anti-Myc agarose or anti-V5 agarose, 2 h at 4°C; immunoblotting with anti-Myc and anti-V5
# [1] = biological target: T1, Myc-tagged TBK1 K694E (murine)
# [2] = biological target: T2, Myc-tagged TBK1 L693A (murine)
# [3] = biological target: T3, Myc-tagged TBK1 wt (murine)
Molecule,binding [1],binding [2],binding [3]
V5-tagged NAP1 (from UniProt Q9QYP6 1-405),binds,binds,binds
V5-tagged Sintbad (from UniProt A2A9T0 1-611),no binding,binds,binds
B1,no binding,no binding,binds
